Test results reported in ChEMBL document CHEMBL1201862, “PubChem BioAssay data set” (2004).
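Five concentrations, 48 hours, 96-well plates. GI50: concentration for 50% inhibition of growth.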 Activity calls are given as the source filed them. Rule as the data show it: active = GI50 up to about 1.1 µM and inactive = higher. Bridge positions count the residues as written; N and C are the ends. Square brackets hold non-standard residues; d marks the D form. Peptide text beside a SMILES is read from it. * marks the point of attachment. Phe(4-NO2) = N[CH](Cc1ccc([N+](=O)[O-])cc1)C(=O)O; Cbz = O=C(OCc1ccccc1)*

test system: NCI-H322M; experiment: inhibition of tumour cell growth, NCI panel, 48 h

Compound | GI50
O=C(/C=C/c1ccc(OCc2ccccc2)c(OCc2ccccc2)c1)OCc1ccccc1 | inactive: > 100 µM
C[N+](C)(C)CC1CCCCCCCCCCC1=O (configuration not stated) | inactive: > 100 µM
COC(=O)[C@@H]1[C@H](O)CC[C@H]2[C@@]1(C)CC[C@@H](C)[C@]2(COC(C)=O)CC(=O)c1ccoc1 | inactive: > 50 µM
[N-]=[N+]=Nc1cc(=O)[nH]nc1-c1ccccc1 | inactive: > 100 µM
NC(=S)N1N=C2c3ccccc3CC[C@H]2[C@@H]1c1cccs1 | inactive: 92.3 µM
CCOC(=O)CCC(NC(=O)OCc1ccccc1)C(=O)NC(CCC(=O)OCC)C(=O)NC(CCC(=O)OCC)C(=O)NC(CCC(=O)OCC)C(=O)NC(CCC(=O)OCC)C(=O)NC(Cc1ccc([N+](=O)[O-])cc1)C(=O)NC(CCC(=O)OCC)C(=O)NC(CCC(=O)OCC)C(=O)NC(CCC(=O)OCC)C(=O)NC(CCC(=O)OCC)C(=O)NC(CCC(=O)OCC)C(=O)OCC (configuration not stated) (Cbz-E(OEt)E(OEt)E(OEt)E(OEt)E(OEt)[Phe(4-NO2)]E(OEt)E(OEt)E(OEt)E(OEt)E(OEt)-OEt; configuration not given here) | inactive: > 50 µM
Cc1nc(C)c(C(=O)NNC(N)=S)cc1C(=O)NNC(N)=S | inactive: > 100 µM
CC1=NN(c2ccccc2)C(=O)C1/N=N/c1ccc(Br)c(C)c1 (configuration not stated) | inactive: > 100 µM
Cc1ccc(OCC2OC(n3cnc4nc(Cl)nc(Cl)c43)CC2Oc2ccc(C)cc2)cc1 (configuration not stated) | inactive: 15.6 µM
COc1cc(C(=O)OC2CC34CCNC35CC(OC5(OC)C2O)c2cc3c(cc24)OCO3)ccc1O (configuration not stated) | inactive: > 100 µM
O=C(c1ccccc1)N(C(=O)c1ccccc1)c1nc(SCc2ccccc2)ns1 | inactive: 29.4 µM
Clc1ccc(COC(Cn2ccnc2)c2ccc(Cl)cc2Cl)c(Cl)c1 (configuration not stated) [MICONAZOLE] | inactive: 13.2 µM
Cc1cccc2nc3n(c12)C(=O)c1ccccc1-3 | inactive: > 100 µM
C=CCn1c(N)c(C#N)c(C#N)c1CCC | inactive: > 100 µM
COc1ccc(/C=N/Nc2nc3ccccc3c(=O)n2-c2ccccc2)cc1 | inactive: > 100 µM
COC(=O)c1ccccc1CC1Cc2cccc(C)c2C1=O (configuration not stated) | inactive: > 100 µM
CC(=O)c1c(C(F)(F)F)[n+]([O-])c2cc(Cl)c(Cl)cc2[n+]1[O-] | inactive: 1.51 µM
CC1=NN2C(=N)/C(=C/c3ccco3)C(=O)N=C2S1 | inactive: > 100 µM
CCC(C)C1NC(=O)C(CC(C)C)NC(=O)C(C(C)C)NC(=O)C2CSSCC(NC1=O)C(=O)N2 (configuration not stated) (cyclo(CCVLI); disulfide 1-2; configuration not given here) | active: 0.158 µM
CO[C@]12CCC(=O)N1C=Cc1c2[nH]c2ccccc12 | inactive: > 100 µM
CCOC(=O)c1c(N2CCOCC2)[nH]c(=O)c(C(c2c(Cl)cccc2Cl)c2c(O)c(C(=O)OCC)c(N3CCOCC3)[nH]c2=O)c1O | inactive: 18.9 µM
Cc1csc(-c2cn(C)c3c2C(=O)C(=N)C=C3O)n1 | inactive: 4.23 µM
CC(=O)O[C@H]1CCC2[C@@H]3CCC4Nc5oncc5C[C@]4(C)C3CC[C@@]21C (some centres not stated) | inactive: > 10 µM

Compound | GI50
CC(C)OC(=O)c1ccc(NCc2cc(O)ccc2O)cc1Cl | inactive: 23.7 µM
Nc1nc(N)c2c(n1)NC(c1ccccc1)CC(/C=C/c1ccc(Cl)cc1)=N2 (configuration not stated) | inactive: 14.6 µM
O=C(Oc1ccc2c(c1)CN(Cc1ccccc1)CO2)c1ccccc1 | inactive: 18.3 µM
CCCCNS(=O)(=O)c1n[nH]c(=O)[nH]c1=O | inactive: > 100 µM
Oc1ccc2cc(Br)ccc2c1-c1c(O)ccc2ccc(Br)cc12 | inactive: 13.6 µM
Cc1ccc([Se][Se]c2ccc(C)cc2)cc1 | inactive: 54.8 µM
O=C1/C(=N/CCc2cc(Br)c(O)c(Br)c2)C=C(O)c2cccnc21 | inactive: 1.96 µM
COc1c2ccoc2cc2oc(=O)ccc12 [BERGAPTEN] | inactive: > 100 µM
Clc1ccc(C(OCn2ccnc2)c2nc3ccccc3[nH]2)c(Cl)c1 (configuration not stated) | inactive: > 100 µM
CCN(CC)CCCC(C)NC(=O)c1cc(-c2nccn2C)nc2ccc(C)cc12 (configuration not stated) | inactive: > 100 µM
CCCC(C)NC1=C(NC(C)=O)C(=O)c2ccccc2C1=O (configuration not stated) | inactive: > 100 µM
O=C1OC[C@@H]2[C@@H](O)CCCCCN12 | inactive: > 100 µM
CC[C@]12C=CCN3CCC4(c5cc(/N=N/c6ccc([N+](=O)[O-])cc6)c(OC)cc5N(C)[C@H]4[C@@](O)(C(=O)OC)[C@@H]1OC(C)=O)[C@@H]32 (some centres not stated) | inactive: 20.7 µM
Cn1ccnc1C(O)(c1nccn1C)c1nccn1C | inactive: > 100 µM
CCC(/C=C/c1ccccc1)=N\Nc1ccc(Cl)c(Cl)c1 | inactive: 37.6 µM
O=C1CC(c2c(-c3ccccc3)[nH]c3ccccc23)C(=O)N1 (configuration not stated) | inactive: > 100 µM
Cc1c(C(=O)O)c2cc3ccccc3cc2c(=O)n1C | inactive: > 10 µM
CC1(Cl)CC2OC3(Br)C=CC(C)(O)C2(CC1Br)C3(C)C (configuration not stated) | inactive: > 100 µM
C=C1CC(COc2ccc3ccc(=O)oc3c2)(c2ccccc2)OC1=O (configuration not stated) | inactive: 12 µM
O=C1OCC2(CO1)CC1C=CC2C1 (configuration not stated) | inactive: > 100 µM
CCOC(=O)C(NC(=O)CC)(Nc1ccc(S(=O)(=O)Nc2onc(C)c2C)cc1)C(F)(F)F (configuration not stated) | inactive: > 100 µM
C=CCN1CCC(O)(c2cc(C(=O)OCC)[nH]c2-c2cc(C)no2)C1 (configuration not stated) | inactive: > 100 µM
O=C(Nc1nc2ncn(CC(COc3ccccc3)OC(=O)c3ccccc3)c2c(=O)[nH]1)c1ccccc1 (configuration not stated) | inactive: > 100 µM

Compound | GI50
CCc1ccccc1NC(=O)CCc1nnc(S)[nH]1 | inactive: > 100 µM
CCOC(=O)c1c(-c2ccc(Cl)cc2)c(C#N)c(=S)n(C2OC(COC(C)=O)C(OC(C)=O)C(OC(C)=O)C2OC(C)=O)c1-c1ccccc1 (configuration not stated) | inactive: > 100 µM
C(=N\Nc1ccc(-c2nc3ccccc3[nH]2)cc1)/c1c(-c2ccc(Cc3ccccc3)cc2)[nH]c2ccccc12 | inactive: 8.73 µM
COc1cc(/C=C/C(=O)O)ccc1C(=O)O/C=C/c1ccccc1 | inactive: > 100 µM
COc1ccc(-c2c(/C=N/OCC(=O)O)c3sc4ccccc4n3c2/C=N/OCC(=O)O)cc1 | inactive: > 50 µM
C=C1NC(=O)C(CC(C(=O)C(=O)Nc2c(C)cccc2C(C)(C)C)C(=O)c2ccc3ccccc3c2)C(=O)N1 (configuration not stated) | inactive: > 100 µM
N=C(N)c1csc([C@@H]2O[C@H](CO)[C@@H](O)[C@H]2O)n1 | inactive: > 100 µM
Cc1cccc(C)c1NC(=O)CCCC(=O)C(C#N)c1ccccc1 (configuration not stated) | inactive: > 10 µM
CCCCCCCCCCCCCCCC(=O)NCC(COP(=O)([O-])OCC[N+](C)(C)C)OCC (configuration not stated) | inactive: 18.3 µM
Cc1cc(S(=O)(=O)Nc2nc(-c3ccccn3)n[nH]2)c(S)cc1Cl | inactive: 10.5 µM
CCOC(=O)C(C)(C)C(O)C(C)C (configuration not stated) | inactive: > 100 µM
ClCc1nn(-c2ccccc2)c(CCl)c1CCl | inactive: 13.9 µM
CNC(=O)SCC(NC(=O)CCC(N)C(=O)O)C(=O)NCC(=O)O (configuration not stated) | inactive: > 100 µM
COc1ccc(-n2cnc3c2=NC(C)(C)NC=3C(N)=O)c(OC)c1 | inactive: > 100 µM
CCO[C@@H]1OC(=O)[C@@](C)(C(C)=O)[C@@H]1C | inactive: 16.1 µM
O=c1c(C(c2ccc3ccccc3c2)c2c(O)oc3ccccc3c2=O)c(O)oc2ccccc12 | inactive: 36.9 µM
Cc1nnc2n1-c1ccccc1N(Cc1ccccc1)CC2 | inactive: > 100 µM
COP1(=O)NCc2ncccc2O1 (configuration not stated) | inactive: > 100 µM
C/C(CC(=O)Nc1ccc(Cl)cc1)=N\NC(N)=S | inactive: > 100 µM
CCOC(=O)c1nc2ccc(C(F)(F)F)cc2nc1NCc1ccc(Cl)c(Cl)c1 | inactive: 45.8 µM
c1ccc(P2c3ccccc3Nc3ccccc32)cc1 | inactive: > 100 µM
C1CCN2CC3CONC3C2C1 (configuration not stated) | inactive: > 100 µM
O=C1Nc2cccc(Cl)c2/C1=C\c1c(Cl)nc2n1CCS2 | inactive: > 100 µM

Compound | GI50
CCOP(C)(=O)/C(Cc1ccc(OC)c(OC)c1)=N\O (configuration not stated) | inactive: > 100 µM
CCOC1OCCCC1Br (configuration not stated) | inactive: > 100 µM
CNC(=S)N/N=C1\CC(c2ccccc2)Oc2ccccc21 (configuration not stated) | inactive: > 100 µM
Oc1ccccc1/C=N/c1ccc(-c2nc3ccccc3s2)cc1 | inactive: 33.3 µM
CN1C(=O)N(C)C2(O)c3ccccc3C(=O)C12O (configuration not stated) | inactive: > 100 µM
Nc1ccc2c(c1)Oc1c(F)c(F)cc3c(=O)c(C(=O)O)cn-2c13 | inactive: 43.6 µM
CC(C)[C@@H]1ON1C(C)c1ccccc1 (some centres not stated) | inactive: > 100 µM
CC1=NN(C(=O)c2ccccc2O)C(=O)/C1=C/c1ccc([N+](=O)[O-])cc1 | inactive: 1.39 µM
CCOC(=O)C(Cl)(NC(=O)c1ccc(F)cc1)C(F)(F)F (configuration not stated) | inactive: > 100 µM
COC(=O)C1=C(C)N(NC(=O)c2ccccc2)C2(O)CCCC(=O)C12C (configuration not stated) | inactive: > 100 µM
Cc1ccc(OCC(=O)N2N=C(c3ccccc3)CC2(O)c2ccccc2)cc1 (configuration not stated) | inactive: 77.6 µM
CN1CN(c2ccccc2)C2(CCN(CCCN(C)c3ccc(F)cc3)CC2)C1=O | inactive: 17.9 µM
CN1CCN(CC(=O)N2CCCn3c2nc2ccccc2c3=O)CC1 | inactive: > 100 µM
CN(C)C1C(CO)OC(n2cnc3c(N)ncnc32)C1O (configuration not stated) | inactive: > 100 µM
Cc1nc2ccc(N)cc2nc1O | inactive: > 100 µM
CC(=O)OCC1OC(n2cc(F)c(=O)[nH]c2=O)C(OC(C)=O)C1OC(C)=O (configuration not stated) | inactive: > 38 µM
COC(=O)Cc1c(C(=O)CC(C)(C)n2cnc(CCN3C(=O)CCC3=O)c2)[nH]c2ccccc12 | inactive: > 100 µM
Cc1ccc(S(=O)(=O)NC(C(=O)O)C(C)C)cc1 (configuration not stated) | inactive: > 100 µM
COC(=O)C1Cc2cc3c(cc2C1=O)CCCC3 (configuration not stated) | inactive: > 100 µM
Cc1cc(C)nc(NC(=S)Nc2ccccc2Cl)c1 | inactive: > 100 µM
COc1ccccc1Cn1nc(OC)c2cc([N+](=O)[O-])ccc21 | inactive: > 20.4 µM
COC(=O)[C@]12CSC[C@H]1C[C@H](c1ccccc1OC)N2 | inactive: > 100 µM
O=C(CCCCCCCCCCc1ccccc1)C1=C(O)CCCC1=O | inactive: 40.7 µM
